From publication PMC4336329 (PLoS ONE, 2015) come the findings set out here.

Among all 310,000 compounds or so, about 2,200 (0.71%) showed an effect of 50% or more. Effects have a minus sign here. Some of the results follow.

Chain of human ether-à-go-go-related gene (hERG) potassium channel (Q12809 whole entry, looked up): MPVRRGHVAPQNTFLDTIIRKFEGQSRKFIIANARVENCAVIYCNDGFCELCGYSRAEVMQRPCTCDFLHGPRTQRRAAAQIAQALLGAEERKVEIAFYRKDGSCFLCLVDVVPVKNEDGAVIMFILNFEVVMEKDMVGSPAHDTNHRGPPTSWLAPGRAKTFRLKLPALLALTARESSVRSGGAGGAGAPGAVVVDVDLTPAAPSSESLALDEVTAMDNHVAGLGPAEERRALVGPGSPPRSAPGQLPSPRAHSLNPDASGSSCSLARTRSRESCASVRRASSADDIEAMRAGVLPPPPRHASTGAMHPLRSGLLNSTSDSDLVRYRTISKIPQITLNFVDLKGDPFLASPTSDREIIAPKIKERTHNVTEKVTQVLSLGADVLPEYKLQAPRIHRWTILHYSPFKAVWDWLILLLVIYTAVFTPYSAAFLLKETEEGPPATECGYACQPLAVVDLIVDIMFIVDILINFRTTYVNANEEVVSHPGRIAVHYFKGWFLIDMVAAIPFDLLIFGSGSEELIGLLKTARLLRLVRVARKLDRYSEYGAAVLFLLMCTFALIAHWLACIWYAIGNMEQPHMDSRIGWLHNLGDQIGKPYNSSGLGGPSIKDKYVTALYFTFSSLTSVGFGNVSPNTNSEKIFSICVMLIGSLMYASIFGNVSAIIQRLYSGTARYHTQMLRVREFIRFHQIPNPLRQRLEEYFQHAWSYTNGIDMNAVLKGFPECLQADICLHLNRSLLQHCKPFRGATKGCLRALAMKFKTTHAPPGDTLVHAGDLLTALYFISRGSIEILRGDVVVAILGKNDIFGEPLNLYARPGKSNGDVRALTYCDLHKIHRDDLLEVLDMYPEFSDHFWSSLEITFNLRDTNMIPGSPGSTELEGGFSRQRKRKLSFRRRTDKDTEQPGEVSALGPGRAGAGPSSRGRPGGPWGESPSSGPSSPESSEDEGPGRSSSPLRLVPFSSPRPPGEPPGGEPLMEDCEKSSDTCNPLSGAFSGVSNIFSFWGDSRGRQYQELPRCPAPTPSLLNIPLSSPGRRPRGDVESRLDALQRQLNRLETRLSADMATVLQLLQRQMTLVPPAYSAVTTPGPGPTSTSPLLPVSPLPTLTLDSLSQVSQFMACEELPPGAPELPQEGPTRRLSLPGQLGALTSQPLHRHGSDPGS

The assay has as its target human ether-à-go-go-related gene (hERG) potassium channel (human, UniProt Q12809). Put plainly: primary screen, population patch clamp on CHO cells stably expressing hERG.
With `COc1ccc(C(=O)NNS(=O)(=O)c2ccc(C)cc2)cc1`, the “hERG current change (%, negative = inhibition) at 1uM” value is on record as 0.298%.

`Cc1cc(C)nc(NS(=O)(=O)c2ccc(N=Cc3c(O)n(C)c(=O)n(C)c3=O)cc2)n1`: the “hERG current change (%, negative = inhibition) at 1uM” value amounted to 10.5%. Then `Cn1c(SCC(=O)NNC(=O)Nc2ccc(Cl)cc2)nnc1-c1ccccc1`, with 8.98%; and `CCOC(=O)Cn1cnc2c(nnn2-c2cccc(OC)c2)c1=O`, with 17%. As to `Cc1noc(C)c1-c1nc(CS(=O)(=O)c2ccc(Cl)cc2)no1`, the “hERG current change (%, negative = inhibition) at 1uM” value stood at 7.64%.

Regarding `COc1ccc([N+](=O)[O-])cc1N(CC(O)CN1CCCC1)S(=O)(=O)c1ccc(C)cc1` (centres unmarked), the “hERG current change (%, negative = inhibition) at 1uM” value is on record as 14.7%. In the case of `O=C(O)CSc1ccc(Oc2ccc(SCC(=O)O)cc2)cc1` it was 11.5%; in that of `O=S1(=O)CCOC[C@H](CC2CCCCC2)N1Cc1ccc(Cl)cc1`, 12.1%.

Turning to `O=[N+]([O-])c1ccc(NCCNS(=O)(=O)c2ccccc2)c(C(F)(F)F)c1`, the “hERG current change (%, negative = inhibition) at 1uM” value is recorded as 11.6%. In the case of `C=C(C)Cn1c(Sc2nc3ccccc3[nH]2)nc2c1c(=O)[nH]c(=O)n2C` it was -2.23%; in that of `O=C(CN1CCOCC1)NNC(=S)Nc1ccccc1`, 0.729%; in that of `O=C(COC(=O)C1=NN(c2ccccc2)C(=O)CC1)Nc1ccc([N+](=O)[O-])cc1C(F)(F)F`, 9.29%. In the case of `COC(=O)[C@H](CCSC)NC(=O)Nc1ccc(S(N)(=O)=O)cc1` it was 6.1%. On to `CN1CCN(c2ccc(S(=O)(=O)N3CCOCC3)cc2NC(=O)COc2ccc(F)cc2Cl)CC1`, for which the “hERG current change (%, negative = inhibition) at 1uM” value was 2.88%. Then `NC(=O)COC(=O)c1cc([N+](=O)[O-])ccc1NCCO`, with -3.71%; and `CC1CCN(C(=O)COC(=O)C(C)N2C(=O)c3ccccc3C2=O)CC1` (centres unmarked), with -2.2%; and `O=C1c2ccccc2C(Nc2cccnc2)N1Cc1ccccc1Cl` (centres unmarked), with 2.59%.

`CC(C)c1nnc(NC(=O)C2CCN(C(=O)Nc3ccccc3)CC2)s1`: the “hERG current change (%, negative = inhibition) at 1uM” value was found to be 5.36%. In the case of `O=C(CSc1nnc(-c2cccc(S(=O)(=O)N3CCOCC3)c2)n1C1CCCCCC1)NCc1ccccc1` it was -1%. In the case of `CCOCCCNC(=O)c1ccc2c(c1)ncn2-c1ccccc1OC`, the “hERG current change (%, negative = inhibition) at 1uM” value was 5.65%. For `CCn1c(=O)c(=O)[nH]c2cc(C(=O)NCC3CCCCC3)ccc21`, the “hERG current change (%, negative = inhibition) at 1uM” value was determined as 0.63%. In the case of `O=C(Nc1ccc(N2CCOCC2)cc1)c1cnccn1` it was 19.2%.

As for `CN1CCCC(C(=O)c2ccccc2)C1.O=C(O)/C=C/C(=O)O` (centres unmarked), the “hERG current change (%, negative = inhibition) at 1uM” value was 10.8%.

Take `Cc1ccc(NC(=O)CSc2ccccn2)cc1S(=O)(=O)N1CCOCC1`: the “hERG current change (%, negative = inhibition) at 1uM” value is on record as 12.5%.

Regarding `CS(=O)(=O)N1CCc2cc(C(=O)NC3CC3)ccc21`, the “hERG current change (%, negative = inhibition) at 1uM” value is recorded as 19.1%. Then `C/C(CC(=O)Nc1ccc(OCc2ccccc2)cc1)=N\NC(=O)C(=O)Nc1ccc(C)c(Cl)c1`, with 10.9%; and `O=C(NCc1ccc2c(c1)OCO2)Nc1ccc2ccccc2c1`, with 13.9%; and `CCCC(=O)NNC(=O)Nc1ccccc1`, with 15.5%.

As for `Cc1cc(SCNC(=O)c2ccccc2)nc(C(C)C)n1`, the “hERG current change (%, negative = inhibition) at 1uM” value is given as 8.47%. Consider `COc1ccc(CNc2nc(-c3ccccc3)nc3ccccc23)cc1OC`, for which the “hERG current change (%, negative = inhibition) at 1uM” value is reported as 15.6%. `c1ccc(Cn2nnc3c(NCCN4CCOCC4)ncnc32)cc1`: the “hERG current change (%, negative = inhibition) at 1uM” value was determined as 8.74%. On to `COc1ccc(-c2csc(NC(=O)c3ccccc3S(C)(=O)=O)n2)cc1`, for which the “hERG current change (%, negative = inhibition) at 1uM” value worked out at 8.23%. As to `COc1ccc(C(=O)CCNc2cccc(Cl)c2)cc1`, the “hERG current change (%, negative = inhibition) at 1uM” value worked out at 8.05%. As for `CCCc1cc(C(N)=O)c(NC(=O)c2ccoc2C)s1`, the “hERG current change (%, negative = inhibition) at 1uM” value is -2.23%. In the case of `Cc1nc2nc(C)c(CCC(=O)N3CCc4ccccc43)c(C)n2n1` it was -36.3%. On to `C/C(CC(=O)Nc1ccc2c(c1)OCCO2)=N\NC(=O)COc1ccc(C)cc1Br`, for which the “hERG current change (%, negative = inhibition) at 1uM” value is -8.51%. Then `Cc1ccccc1NCc1nnc2n1CCCCC2`, with 2.9%; and `CC(C)(C)C(=O)Nc1nnc(SCC(=O)Nc2nccs2)s1`, with 16.4%; and `CCCN(C1CCS(=O)(=O)C1)S(=O)(=O)c1cc(OC)ccc1OC` (centres unmarked), with 25.3%. Then `CN(C)c1ccc(C(=O)N(Cc2ccccc2)Cc2ccccc2)cc1`, with 13.7%; and `COc1cc(C(=O)N/C(=C\c2cn(C)c3ccccc23)C(=O)NCCCO)cc(OC)c1OC`, with 8.06%.

For `COc1ccc(N2CCN(S(=O)(=O)c3ccc4c(c3)NC(=O)CC(=O)N4)CC2)cc1`, the “hERG current change (%, negative = inhibition) at 1uM” value is recorded as 20.6%. In the case of `O=C(NCc1cccnc1)[C@@H]1CC=C[C@@H]2CCN(Cc3ccc(Cl)c(Cl)c3)C(=O)[C@@H]21` it was 2.32%; in that of `Cc1ccc(NC(=O)/C=C/C(=O)O)c([N+](=O)[O-])c1`, -28.8%. Then `COc1ccc(-c2[nH]nc3c2C(c2ccncc2)C(C#N)=C(N)O3)cc1` (centres unmarked), with 17.1%.

Take `COc1ccc(C(C(C(=O)c2ccco2)N2CCOCC2)N2CCOCC2)cc1` (centres unmarked): the “hERG current change (%, negative = inhibition) at 1uM” value was determined as 9.92%. Regarding `COc1ccccc1CNC(=O)CN(CCc1ccccc1)S(C)(=O)=O`, the “hERG current change (%, negative = inhibition) at 1uM” value came to 1.74%.

For `COC1OC(COC(=O)CNC(=O)OC(C)(C)C)C(O)C(O)C1O` (centres unmarked), the “hERG current change (%, negative = inhibition) at 1uM” value turned out to be 6.13%. Take `Cc1cc(Cl)ccc1NC(=S)NCc1ccc(Cl)cc1`: the “hERG current change (%, negative = inhibition) at 1uM” value was found to be 8.68%.

As to `Nc1nc(NCCCN2CCOCC2)nc(Nc2cccc(Cl)c2)c1[N+](=O)[O-]`, the “hERG current change (%, negative = inhibition) at 1uM” value was determined as 2.1%. Then `O=C(NC1(C(F)(F)F)NC(=O)N(Cc2ccccc2)C1=O)c1cccs1` (centres unmarked), with 8.79%; and `Cc1c(C(=O)NCCCN2CCCC2=O)oc2c(Cl)cccc12`, with 9.95%. Then `CCOc1cc(NC(=S)Nc2ccccc2)c(OCC)cc1NC(=O)c1ccc(OC)cc1`, with 12.7%. In the case of `CCCc1nc2sc3c(c2c(=O)n1NC(=O)CCCl)CCCC3` it was 3.22%; in that of `CC(=O)NC1C(OCc2cccc(Br)c2)OC(COC(C)=O)C(OC(C)=O)C1OC(C)=O` (centres unmarked), -0.735%. For `COc1ccccc1NC(=O)c1ccccc1NS(C)(=O)=O`, the “hERG current change (%, negative = inhibition) at 1uM” value is -1.51%.

Regarding `CSc1cccc(Nc2ccc(S(=O)(=O)N3CCOCC3)cc2[N+](=O)[O-])c1`, the “hERG current change (%, negative = inhibition) at 1uM” value is on record as 5.58%. With `CC(=O)c1sc(NC(=O)C2CC(=O)N(Cc3ccco3)C2)nc1-c1ccccc1` (centres unmarked), the “hERG current change (%, negative = inhibition) at 1uM” value is -7.26%. Then `C=CCc1cccc(/C=N/n2c(C)nnc2C)c1O`, with 20.8%; and `Cc1ccc(C(=O)CCC(=O)N2CCC(C(N)=O)CC2)s1`, with 17.8%; and `COc1cccc(-c2nnc(SCC(=O)N(C(C)C)C(C)C)o2)c1`, with 12.1%.

On to `O=C(Nc1ccc(Cl)cc1-c1nc2ccccc2s1)c1ccco1`, for which the “hERG current change (%, negative = inhibition) at 1uM” value worked out at 15.4%. In the case of `Cc1ccc(CNS(=O)(=O)CCNC(=O)c2ccccc2)cc1` it was -11%; in that of `O=C(CSc1nc2c(sc3ccccc32)c(=O)n1CCCN1CCCC1)NCC1CCCO1` (centres unmarked), -19.8%; in that of `Cc1nn(-c2ccccc2)c2c1C(c1ccco1)C(C#N)=C(N)O2` (centres unmarked), 0.884%. Regarding `COc1ccc(CCn2c(NN=C(C)C)nc3c2c(=O)[nH]c(=O)n3C)cc1`, the “hERG current change (%, negative = inhibition) at 1uM” value was determined as 11%.

With `CC(=O)c1ccccc1NS(=O)(=O)c1cccc2nonc12`, the “hERG current change (%, negative = inhibition) at 1uM” value is on record as -32.6%. On to `Nc1nc(-c2ccccc2)nc2sc3c(c12)CCCC3`, for which the “hERG current change (%, negative = inhibition) at 1uM” value worked out at 7.59%. In the case of `C/C(=N/NS(=O)(=O)c1ccc(C)cc1C)c1c[nH]c2ccccc12` it was 13.9%; in that of `Cc1cc(=O)n(Cc2ccccc2)c(O)c1C#N`, 14.6%. In the case of `O=C(Cn1ccc(NC(=O)OCc2ccccc2)nc1=O)NCCCN1CCCC1=O` it was 7.66%. Regarding `Cn1c(N)c(C(=O)c2ccccc2)c(=O)n(C)c1=O`, the “hERG current change (%, negative = inhibition) at 1uM” value is 16.2%. As to `Cc1ccc(CC(=O)NCC(c2ccco2)N(C)C)cc1C` (centres unmarked), the “hERG current change (%, negative = inhibition) at 1uM” value is 8.12%. Then `COc1ccc(NS(=O)(=O)c2cccc(C(=O)NCC(c3ccccc3OC)N3CCCC3)c2)cc1` (centres unmarked), with -20.1%; and `Cc1nnc(NC(=O)c2cccc(Br)c2)s1`, with 3.13%; and `Cn1c(-c2ccc3c(c2)OCO3)cc(=O)c2ccccc21`, with 8.33%. In the case of `CCOC(=O)c1cc2c(nc1NC(=S)NCc1ccccc1)CCCC2`, the “hERG current change (%, negative = inhibition) at 1uM” value turned out to be 14.6%.

With `NC(=O)c1cc(S(=O)(=O)NCCCc2ccccc2)cs1`, the “hERG current change (%, negative = inhibition) at 1uM” value is 10.4%. Then `NC(=O)c1c(NC(=O)c2cccs2)sc2c1CCCCCC2`, with 10.7%. Take `NC(=O)c1ccc(NC(=O)CC23CC4CC(CC(Br)(C4)C2)C3)cc1`: the “hERG current change (%, negative = inhibition) at 1uM” value turned out to be 16.7%. Consider `CN(C)C=Nc1ccc2nn(-c3ccccc3)nc2c1`, for which the “hERG current change (%, negative = inhibition) at 1uM” value is on record as -15.3%. In the case of `Cc1ccccc1OCCC(=O)OCC(=O)NCCNC(=O)COC(=O)CCOc1ccccc1C` it was 8.53%. Consider `COCCn1c(C)cc(C(=O)CSc2nnc(C3CC3)n2C2CC2)c1C`, for which the “hERG current change (%, negative = inhibition) at 1uM” value came to 11.5%. In the case of `CC12CCC(C(=O)Nc3cccnc3)(CC1=O)C2(C)C` (centres unmarked) it was 13.3%. Then `COc1ccc(OC)c(/C=N/NC(=O)c2cnccn2)c1`, with 9.74%.

With `COC(=O)N/N=C/c1cn(CC(C)COc2ccccc2)c2ccccc12` (centres unmarked), the “hERG current change (%, negative = inhibition) at 1uM” value is on record as 13%. Turning to `CC(C)(C)c1ccc(C(=O)Nc2nonc2-c2nc3ccccc3[nH]2)cc1`, the “hERG current change (%, negative = inhibition) at 1uM” value is 11.8%. Then `CC1(C)CC(=O)C2=C(C1)OC(N)=C(C#N)[C@@]21C(=O)N(CC(N)=O)c2ccccc21`, with 16.7%.

Turning to `CCCN(CCC)CCNc1c(N2CCN(C(=O)OCC)CC2)c(=O)c1=O`, the “hERG current change (%, negative = inhibition) at 1uM” value was determined as 0.775%.
